We go through 88 compounds from article PMC4336329 (PLoS ONE, 2015).

About 14,000 (4.5%) of roughly 310,000 compounds showed an effect of 50% or more. Effects have a minus sign here. The list shows a part of the results.
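Further: peak tail current of the secondary pulse compared with the same well before compound.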

human ether-à-go-go-related gene (hERG) potassium channel, sequence (Q12809 whole entry, looked up): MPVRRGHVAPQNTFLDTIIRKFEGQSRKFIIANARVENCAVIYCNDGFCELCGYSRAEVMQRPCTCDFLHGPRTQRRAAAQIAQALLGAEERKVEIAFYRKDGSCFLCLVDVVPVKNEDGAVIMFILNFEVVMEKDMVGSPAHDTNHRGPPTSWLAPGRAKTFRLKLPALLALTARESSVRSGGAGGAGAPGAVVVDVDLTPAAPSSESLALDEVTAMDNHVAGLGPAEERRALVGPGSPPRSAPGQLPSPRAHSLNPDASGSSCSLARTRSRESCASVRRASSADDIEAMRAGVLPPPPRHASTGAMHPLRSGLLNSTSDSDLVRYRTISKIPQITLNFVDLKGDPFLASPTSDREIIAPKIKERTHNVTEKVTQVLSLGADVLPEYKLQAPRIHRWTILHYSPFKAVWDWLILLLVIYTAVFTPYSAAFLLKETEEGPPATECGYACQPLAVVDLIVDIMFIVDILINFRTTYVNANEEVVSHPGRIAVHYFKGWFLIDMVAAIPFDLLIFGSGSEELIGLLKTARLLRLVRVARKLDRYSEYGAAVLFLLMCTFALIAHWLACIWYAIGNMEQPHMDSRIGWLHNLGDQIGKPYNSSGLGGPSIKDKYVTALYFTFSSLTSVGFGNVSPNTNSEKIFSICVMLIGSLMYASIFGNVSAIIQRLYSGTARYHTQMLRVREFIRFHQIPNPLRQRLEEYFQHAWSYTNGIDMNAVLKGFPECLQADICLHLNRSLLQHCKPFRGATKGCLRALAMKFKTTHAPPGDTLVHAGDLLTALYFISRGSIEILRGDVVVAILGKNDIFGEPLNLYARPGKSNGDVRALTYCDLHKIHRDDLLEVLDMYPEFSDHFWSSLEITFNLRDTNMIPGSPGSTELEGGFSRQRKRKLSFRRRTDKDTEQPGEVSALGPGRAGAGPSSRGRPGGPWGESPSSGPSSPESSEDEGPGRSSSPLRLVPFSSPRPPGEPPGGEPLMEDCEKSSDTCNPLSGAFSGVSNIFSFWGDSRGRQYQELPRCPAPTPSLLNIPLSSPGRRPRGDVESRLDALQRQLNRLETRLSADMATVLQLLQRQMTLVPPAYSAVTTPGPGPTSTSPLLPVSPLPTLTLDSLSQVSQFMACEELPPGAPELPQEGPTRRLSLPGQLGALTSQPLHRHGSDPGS

The assay addresses human ether-à-go-go-related gene (hERG) potassium channel (human, UniProt Q12809). The assay can be described thus: primary screen, population patch clamp on CHO cells stably expressing hERG.
`COc1ccc(CCNC(=O)c2c(O)c3c([nH]c2=O)CCCC3)cc1`: the “hERG current change (%, negative = inhibition) at 10uM” value is given as 3.52%.
With `C=C(C)c1cccc(C(C)(C)NC(=O)N2CCN(c3ccccn3)CC2)c1` the figure was -27.1%; with `CCN(CC)c1ccc(/C=N/N2CC(=O)NC2=S)cc1`, 6.54%.
Regarding `O=C(O)c1cccc2c1NC(C(=O)O)C1CC(Sc3ccccc3[N+](=O)[O-])C(Cl)C21` (stereo not shown), the “hERG current change (%, negative = inhibition) at 10uM” value is reported as -0.458%.
With `CCN1CCN(C(=O)c2cc3c(=O)n4ccccc4nc3s2)CC1` the figure was 11.2%; with `Cc1cccc(/C=N/n2c(COc3ccccc3)n[nH]c2=S)c1`, 14.8%; with `O=C(CN1C(=O)S/C(=C\c2ccc(F)cc2)C1=O)Nc1cccc(S(=O)(=O)NCc2ccco2)c1`, -1.45%.
Turning to `CCOc1ccccc1NC(=O)CCN(c1ccc(C)cc1)S(=O)(=O)c1ccccc1`, the “hERG current change (%, negative = inhibition) at 10uM” value is given as -10.9%.
With `Cc1cc2c(=O)n(Cc3ccco3)c(SCC(=O)c3ccc(Cl)s3)nc2s1`, the “hERG current change (%, negative = inhibition) at 10uM” value is on record as -18.6%.
With `CCC(=O)Nc1ccc(S(=O)(=O)N2CCc3ccccc3C2)cc1` the figure was -1.77%; with `CCOc1ccc(N(CC(=O)NCc2ccco2)S(=O)(=O)c2ccc(OC)c(OC)c2)cc1`, 5.94%.
As for `COC(=O)C1CC(=O)N(c2ccc(C)cc2)C1` (stereo not shown), the figure is 1.44%.
As for `O=P(O)(CCc1ccccc1)C(O)c1ccccc1` (stereo not shown), the figure is 6.06%.
`CCCOc1ccc(/C=c2\sc3nc(-c4ccco4)nn3c2=O)cc1OCC`: the “hERG current change (%, negative = inhibition) at 10uM” value came out at 8.39%.
As for `CCOc1ccc(N=C2NN=C(c3cc(C)n(CC4CCCO4)c3C)CS2)cc1` (stereo not shown), the figure is 5.85%.
With `CN(Cc1ccc(-n2cccn2)cc1)Cc1cn(C)nc1-c1ccccc1F` the figure was -74.9%; with `COc1ccc(/C=C/c2c([N+](=O)[O-])c(=O)n(C)c(=O)n2C)cc1OC`, 0.272%; with `CCOC(=O)C1CCN(C(=O)Cn2nc(C)n3c(cc4cc(C)ccc43)c2=O)CC1`, -35%.
With `Cc1ccc(S(=O)(=O)N(C)/N=C/c2ccc(N(C)C)cc2)cc1` the figure was 9.16%; with `CCOc1ccc(CCNC(=O)c2ccc(OCc3c(C)noc3C)cc2)cc1OCC`, 11.8%; with `O=C1N(CCCl)c2ccc(Br)cc2C12OCCO2`, 9.62%.
Turning to `Cc1ccc(N2C(=O)CC(N3CCN(C4CCc5ccccc5C4)CC3)C2=O)cc1` (stereo not shown), the “hERG current change (%, negative = inhibition) at 10uM” value is reported as -75.1%.
As for `CN(C)S(=O)(=O)c1ccc2c(c1)Cc1cc(S(=O)(=O)N(C)C)ccc1-2`, the figure is 20.1%.
Consider `CO[C@H]1O[C@@H]2O[C@@]3(C)CC[C@H]4[C@H](C)CC[C@@H]([C@H]1C)[C@@]24OO3`, for which the “hERG current change (%, negative = inhibition) at 10uM” value was found to be 18.5%.
In the case of `CCOc1ccc(C2C3=C(CC(C)(C)CC3=O)N(CC(=O)O)C3=C2C(=O)CC(C)(C)C3)cc1OCC`, the “hERG current change (%, negative = inhibition) at 10uM” value is on record as 5.47%.
With `CCN(Cc1ccccc1)S(=O)(=O)c1ccc(S(=O)(=O)N2CCN(C)CC2)cc1` the figure was 14.4%; with `COCCn1c(=NC(=O)CCS(=O)(=O)c2ccccc2)sc2ccccc21`, -8.2%; with `O=C(Nc1nccs1)c1ccc(Br)s1`, 1.2%.
With `Cc1ccc(Cn2nnnc2CN2CCC(O)(c3ccccc3F)CC2)cc1` the figure was -21.5%; with `CC(C)CC1(C(=O)NCc2ccccn2)C=CCN1C(=O)c1ccccc1` (stereo not shown), 10.6%.
For the compound `Nc1nonc1NN=C1CCCCC1`, the “hERG current change (%, negative = inhibition) at 10uM” value stood at 18.6%.
With `CN(C)c1ccc(-c2nnn(CC(=O)Nc3ccc4c(c3)OCCO4)n2)cc1` the figure was 53.4%; with `Cc1nc2ccc(NS(=O)(=O)c3ccc(C)c(C)c3)cc2s1`, 8.06%.
As for `CCCSc1nnc2n(-c3ccccc3OC)c(=O)c3c4c(sc3n12)CCC4`, the figure is -56.8%.
As for `CCOC(=O)c1cccc(N2C(=O)C3C4C=CC(CC4)C3C2=O)c1` (stereo not shown), the figure is 2.85%; as for `O=C(Nc1nnc(SCc2ccc(F)cc2)s1)c1ccco1`, 14.1%; as for `Cc1nn(C)c(Sc2ccccn2)c1[N+](=O)[O-]`, 9.22%.
Regarding `Cc1nc2c3ccccc3nc(NNC(=O)CCC(=O)N3CCN(c4ccc(F)cc4)CC3)n2n1`, the “hERG current change (%, negative = inhibition) at 10uM” value is on record as -53.2%.
For the compound `Cl.Clc1ccc2[nH]c3c(c2c1)CCNC3`, the “hERG current change (%, negative = inhibition) at 10uM” value was found to be 5.7%.
Consider `CCOC(=O)C1=C(COC(=O)Cc2ccc(Br)cc2)NC(=O)NC1C` (stereo not shown), for which the “hERG current change (%, negative = inhibition) at 10uM” value is recorded as 1.41%.
Take `CC(=O)NC(CC(=O)Nc1ccc(S(=O)(=O)N2CCCCC2)cc1)c1ccccc1` (stereo not shown): the “hERG current change (%, negative = inhibition) at 10uM” value is recorded as -6.14%.
With `O=C(CSc1nnc(NC(=O)C2CC2)s1)NCc1ccc(F)cc1` the figure was 33.3%.
`COc1cccc(Cn2cc(-c3cccc(C(F)(F)F)c3)nn2)c1`: the “hERG current change (%, negative = inhibition) at 10uM” value is -0.656%.
As for `COc1ccc(C2=NN(c3ccccc3)C(=O)/C2=C\c2ccc(O)c(OC)c2)cc1`, the figure is 14.2%; as for `CC(C)(C)c1ccc(/C=C(\C#N)C(=O)NC2CC2)cc1`, 12.3%; as for `C/C(=N/OCc1ccc(Br)cc1)c1ccccn1`, 6.29%.
As for `CN1CCC(N(C)C(=O)NC2CCCCC2)CC1`, the figure is 14%; as for `CCCn1c(C)cc(C)c(C#N)c1=O`, 15.7%; as for `O=c1[nH]c(CNCc2cccnc2)nc2ccccc12`, -3.54%.
Consider `COCCn1c(-c2ccccc2)cnc1SCC(=O)Nc1cccc2ccccc12`, for which the “hERG current change (%, negative = inhibition) at 10uM” value was -26.8%.
As for `Cc1cc2c(ncn2C(C)C)c(NS(=O)(=O)c2ccc(F)cc2)c1C`, the figure is -7.73%; as for `Cc1ccc(-c2noc(CCC(=O)Nc3ccccc3N3CCN(C)CC3)n2)cc1`, -33.7%; as for `COCCN(C(=O)COC(=O)C1(c2ccccc2)CC1)c1c(N)n(CC(C)C)c(=O)[nH]c1=O`, -0.229%.
As for `Cc1ccc(C(=O)NN2C(=O)/C(=C/c3cccn3C)SC2=S)cc1`, the figure is 1.21%; as for `N#CC1(C#N)C(c2ccccc2)OC23CCCCC2C1(C#N)C(=N)O3` (stereo not shown), -7.43%.
Consider `Cc1cc(N2CCN(Cc3ccc4c(c3)OCO4)CC2)n2ncnc2n1`, for which the “hERG current change (%, negative = inhibition) at 10uM” value stood at 7.64%.
`CCC(C)(C)c1nnc(NC(=O)C2CCN(C(=O)c3ccco3)CC2)s1`: the “hERG current change (%, negative = inhibition) at 10uM” value was found to be 11.2%.
With `O=C([O-])/C=C1\CCCc2ccccc2C1O.[Na+]` (stereo not shown) the figure was 18.4%.
Turning to `O=C(CSc1nccc(-c2cccs2)n1)Nc1ccc(F)c(Cl)c1`, the “hERG current change (%, negative = inhibition) at 10uM” value is reported as -19.6%.
On to `CCO[C@H]1OC(C(=O)NCc2ccccc2)=C[C@@H](C2CCCCC2)[C@@H]1CCCO`, for which the “hERG current change (%, negative = inhibition) at 10uM” value was -19.8%.
As for `COC(=O)c1sc(NC(=O)C2CCCCC2C(=O)O)c(C(=O)OC)c1C` (stereo not shown), the figure is 17.7%; as for `COc1cccc(CN(C)CC(=O)Nc2c(C)cccc2C(C)C)c1`, -12.2%; as for `O=C1CC(Cc2ccccc2)C(=O)N1c1ccc(Cl)cn1` (stereo not shown), 1.27%.
For the compound `Cc1ccc(-n2c(N)c(S(=O)(=O)c3ccccc3)c3nc4ccccc4nc32)cc1`, the “hERG current change (%, negative = inhibition) at 10uM” value is listed as -25.6%.
Turning to `Cc1nnc(SCC(=O)N2CC(=O)Nc3ccccc32)n1C`, the “hERG current change (%, negative = inhibition) at 10uM” value was found to be 8.71%.
With `CCSCCOC(=O)C1=C(C)NC(=O)NC1c1ccccc1` (stereo not shown) the figure was -0.434%; with `COC(=O)C1=C(c2ccc(C(C)=O)cc2)C[C@@H]2CC[C@H]1N2C(=O)NCc1ccco1`, -18.3%; with `CC/C(C)=N/Oc1nc(C)cc(C)n1`, 19.1%.
With `NC(=NCCc1ccccc1)NS(=O)(=O)c1ccccc1F` the figure was -25.8%; with `Cc1ccc(-n2ncc3c2CCCC3NC(=O)c2ocnc2C)cc1C` (stereo not shown), 1.26%; with `COc1ccc(NC(=O)CN(C)C(=O)/C=C/c2cn(-c3ccccc3)nc2-c2cccs2)cc1`, -1.91%.
On to `Cc1cc(C)c(NC(=O)CSc2nccn2C)c(C)c1`, for which the “hERG current change (%, negative = inhibition) at 10uM” value came to 23.9%.
With `O=c1cc(N2CCOCC2)c2ccccc2o1` the figure was -13.9%.
With `COc1cccc(-n2c(SCc3ccccn3)nc3c(c2=O)SCC3)c1` the figure was 2.24%; with `COC(CNc1cc(=O)oc2ccccc12)OC`, 13.3%; with `Cc1cccc(N2CCN(C(=O)COc3ccc4c(c3)CCC4)CC2)c1C`, -12.1%.
For `COCCCn1c(=O)/c(=C\c2ccccc2OC(F)F)s/c1=C(/C#N)C(=O)NC(C)C`, the “hERG current change (%, negative = inhibition) at 10uM” value was 2.59%.
As for `CC(C)CC(OC(=O)CC1Sc2ccccc2NC1=O)C(=O)NC1CCCC1` (stereo not shown), the figure is -22.9%; as for `CCS(=O)(=O)Nc1cccc(C2=NN(S(=O)(=O)CC)C(c3cccs3)C2)c1` (stereo not shown), -0.115%.
Turning to `CC1=C(C(=O)Nc2cccnc2)C(c2cccnc2)n2ncnc2N1` (stereo not shown), the “hERG current change (%, negative = inhibition) at 10uM” value is given as -5.16%.
`Cc1c(C(=O)c2ccccc2)c2ccccc2n1C`: the “hERG current change (%, negative = inhibition) at 10uM” value is on record as -7.95%.
As to `COc1ccc(C2CC(c3cccs3)=NN2C(=O)CSc2nncn2C)cc1OC` (stereo not shown), the “hERG current change (%, negative = inhibition) at 10uM” value was determined as 4.67%.
As for `O=C(CCC(=O)NNc1nc2ccccc2c2nc(-c3ccccc3)nn12)NCCCN1CCCC1=O`, the figure is -1.42%; as for `COc1ccc(OC(=O)c2ccncc2)cc1`, 3.25%; as for `O=S(=O)(/N=C(\c1ccccc1)N1CCOCC1)c1cccs1`, 10.7%.
With `CCC1Sc2ccc(S(=O)(=O)CCC(=O)Nc3cccc(Br)c3)cc2NC1=O` (stereo not shown) the figure was 12.2%; with `O=C(Nc1ccc(F)c(F)c1)c1ccco1`, 15.3%; with `Cc1cc(=O)oc(C)c1C(=O)NCCc1ccccc1`, 7.49%.
